{
  "source": "the supplement of paper PMC8728848",
  "test_in_all_cases": "glycan array binding signal (z-score within array); higher = stronger binding",
  "settings_in_all_cases": "glycan notation: IUPAC condensed, linker removed",
  "key": {"[1]": {"target": "Fuc(a1-2)[Gal(a1-3)]Gal(b1-4)GlcNAc(b1-2)Man(a1-3)[Fuc(a1-2)[Gal(a1-3)]Gal(b1-4)GlcNAc(b1-2)Man(a1-6)]Man(b1-4)GlcNAc(b1-4)[Fuc(a1-6)]GlcNAc", "summary_of_the_method": "(§1)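 Negative Z-scores can be read as non-binding. The Z-score is calculated within each array and then averaged across arrays of one protein sequence at different concentrations or buffers and across linkers. Arrays, 3228 in all, were curated from the Consortium for Functional Glycomics database and kept only where the protein sequence was available.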"}, "[2]": {"target": "Fuc(a1-2)[Gal(a1-3)]Gal(b1-4)GlcNAc(b1-3)GalNAc", "summary_of_the_method": "as §1"}, "[3]": {"target": "Fuc(a1-2)[Gal(a1-3)]Gal(b1-4)GlcNAc(b1-3)[Fuc(a1-2)[Gal(a1-3)]Gal(b1-4)GlcNAc(b1-6)]GalNAc", "summary_of_the_method": "as §1"}, "[4]": {"target": "Fuc(a1-2)[Gal(a1-3)]Gal(b1-4)GlcNAc(b1-6)GalNAc", "summary_of_the_method": "as §1"}, "[5]": {"target": "Fuc(a1-2)[Gal(a1-3)]Gal(b1-4)[Fuc(a1-3)]Glc", "summary_of_the_method": "as §1"}, "[6]": {"target": "Fuc(a1-2)[Gal(a1-3)]Gal(b1-4)[Fuc(a1-3)]GlcNAc", "summary_of_the_method": "as §1"}, "[7]": {"target": "Fuc(a1-2)[Gal(a1-3)]Gal(b1-4)[Fuc(a1-3)]GlcNAc(b1-3)GalNAc", "summary_of_the_method": "as §1"}, "[8]": {"target": "Fuc(a1-2)[Gal(a1-4)]Gal(b1-4)GlcNAc", "summary_of_the_method": "as §1"}, "[9]": {"target": "Fuc(a1-2)[GalNAc(a1-3)]Gal", "summary_of_the_method": "as §1"}, "[10]": {"target": "Fuc(a1-2)[GalNAc(a1-3)]Gal(b1-3)GalNAc(a1-3)[Fuc(a1-2)]Gal(b1-4)GlcNAc", "summary_of_the_method": "as §1"}, "[11]": {"target": "Fuc(a1-2)[GalNAc(a1-3)]Gal(b1-3)GalNAc(b1-3)Gal(a1-4)Gal(b1-4)Glc", "summary_of_the_method": "as §1"}, "[12]": {"target": "Fuc(a1-2)[GalNAc(a1-3)]Gal(b1-3)GlcNAc", "summary_of_the_method": "as §1"}, "[13]": {"target": "Fuc(a1-2)[GalNAc(a1-3)]Gal(b1-3)GlcNAc(b1-2)Man(a1-3)[Fuc(a1-2)[GalNAc(a1-3)]Gal(b1-3)GlcNAc(b1-2)Man(a1-6)]Man(b1-4)GlcNAc(b1-4)GlcNAc", "summary_of_the_method": "as §1"}, "[14]": {"target": "Fuc(a1-2)[GalNAc(a1-3)]Gal(b1-3)GlcNAc(b1-2)Man(a1-3)[Fuc(a1-2)[GalNAc(a1-3)]Gal(b1-3)GlcNAc(b1-2)Man(a1-6)]Man(b1-4)GlcNAc(b1-4)[Fuc(a1-6)]GlcNAc", "summary_of_the_method": "as §1"}, "[15]": {"target": "Fuc(a1-2)[GalNAc(a1-3)]Gal(b1-3)GlcNAc(b1-3)GalNAc", "summary_of_the_method": "as §1"}, "[16]": {"target": "Fuc(a1-2)[GalNAc(a1-3)]Gal(b1-3)GlcNAc(b1-6)GalNAc", "summary_of_the_method": "as §1"}, "[17]": {"target": "Fuc(a1-2)[GalNAc(a1-3)]Gal(b1-4)Glc", "summary_of_the_method": "as §1"}, "[18]": {"target": "Fuc(a1-2)[GalNAc(a1-3)]Gal(b1-4)GlcNAc", "summary_of_the_method": "as §1"}, "[19]": {"target": "Fuc(a1-2)[GalNAc(a1-3)]Gal(b1-4)GlcNAc(b1-2)Man", "summary_of_the_method": "as §1"}, "[20]": {"target": "Fuc(a1-2)[GalNAc(a1-3)]Gal(b1-4)GlcNAc(b1-2)Man(a1-3)[Fuc(a1-2)[GalNAc(a1-3)]Gal(b1-4)GlcNAc(b1-2)Man(a1-6)]Man(b1-4)GlcNAc(b1-4)GlcNAc", "summary_of_the_method": "as §1"}, "[21]": {"target": "Fuc(a1-2)[GalNAc(a1-3)]Gal(b1-4)GlcNAc(b1-2)Man(a1-3)[Fuc(a1-2)[GalNAc(a1-3)]Gal(b1-4)GlcNAc(b1-2)Man(a1-6)]Man(b1-4)GlcNAc(b1-4)[Fuc(a1-6)]GlcNAc", "summary_of_the_method": "as §1"}, "[22]": {"target": "Fuc(a1-2)[GalNAc(a1-3)]Gal(b1-4)GlcNAc(b1-3)Gal(b1-4)GlcNAc", "summary_of_the_method": "as §1"}, "[23]": {"target": "Fuc(a1-2)[GalNAc(a1-3)]Gal(b1-4)GlcNAc(b1-3)Gal(b1-4)GlcNAc(b1-3)Gal(b1-4)GlcNAc", "summary_of_the_method": "as §1"}, "[24]": {"target": "Fuc(a1-2)[GalNAc(a1-3)]Gal(b1-4)GlcNAc(b1-3)GalNAc", "summary_of_the_method": "as §1"}, "[25]": {"target": "Fuc(a1-2)[GalNAc(a1-3)]Gal(b1-4)GlcNAc(b1-3)[Fuc(a1-2)[GalNAc(a1-3)]Gal(b1-4)GlcNAc(b1-6)]GalNAc", "summary_of_the_method": "as §1"}, "[26]": {"target": "Fuc(a1-2)[GalNAc(a1-3)]Gal(b1-4)GlcNAc(b1-6)GalNAc", "summary_of_the_method": "as §1"}, "[27]": {"target": "Fuc(a1-2)[GalNAc(a1-3)]Gal(b1-4)[Fuc(a1-3)]GlcNAc", "summary_of_the_method": "as §1"}, "[28]": {"target": "Fuc(a1-2)[GalNAc(a1-3)]Gal(b1-4)[Fuc(a1-3)]GlcNAc(b1-3)GalNAc", "summary_of_the_method": "as §1"}, "[29]": {"target": "Fuc(a1-2)[GalNAc(a1-4)]Gal(b1-4)GlcNAc", "summary_of_the_method": "as §1"}, "[30]": {"target": "Fuc(a1-2)[GalNAc(b1-3)]Gal", "summary_of_the_method": "as §1"}, "Fuc(a1-3)GlcNAc": {"target": "Fuc(a1-3)GlcNAc", "summary_of_the_method": "as §1"}, "[31]": {"target": "Fuc(a1-3)[Gal(b1-4)]Glc6S", "summary_of_the_method": "as §1"}, "[32]": {"target": "Fuc(a1-3)[Gal(b1-4)]GlcNAc", "summary_of_the_method": "as §1"}, "[33]": {"target": "Fuc(a1-3)[Gal(b1-4)]GlcNAc(b1-2)Man", "summary_of_the_method": "as §1"}, "[34]": {"target": "Fuc(a1-3)[Gal(b1-4)]GlcNAc(b1-2)Man(a1-3)[Fuc(a1-3)[Gal(b1-4)]GlcNAc(b1-2)Man(a1-6)]Man(b1-4)GlcNAc(b1-4)GlcNAc", "summary_of_the_method": "as §1"}, "[35]": {"target": "Fuc(a1-3)[Gal(b1-4)]GlcNAc(b1-2)Man(a1-3)[Fuc(a1-3)[Gal(b1-4)]GlcNAc(b1-2)Man(a1-6)]Man(b1-4)GlcNAc(b1-4)[Fuc(a1-6)]GlcNAc", "summary_of_the_method": "as §1"}, "[36]": {"target": "Fuc(a1-3)[Gal(b1-4)]GlcNAc(b1-3)Gal(b1-3)[Fuc(a1-4)]GlcNAc", "summary_of_the_method": "as §1"}},
  "note": "Some of the results follow.",
  "data": [
    {"binder": "SP15308A-bot-339-19-339 (Bacteroides ovatus) (protein) ACNNEWEDEQYEQYISFKSPIPAGGEGVTDIYVRYKEDGKVTYRLPIVVSGSTTNTLDREVHIAVDKDTLETLNIERFSIHRPGLWYTALEEDKYDFPKTVHISAGSSVEQLNIDFNLQGIDMLEKWVLPLTIVDDPSYNYKSHPRKNYAKALLRVIPFNNYSGSYTSSAMKVYTYINGKPDTNARTANKRTGYVINDNTVFFYAGLISEDLDKEVREKYKINVHFNEDGTLHMEQGDPTNKMKFELIGTPTYSKTSVMDATRPYLERRYVQIMFEYDFEDFSYGGNGVDVIPIKYKVEGSMTLQRNINTQIPDEDQQIEW", "values": [
      {"measurement": "glycan array binding signal (z-score)", "setting": "[1]", "value": -0.253},
      {"measurement": "glycan array binding signal (z-score)", "setting": "[2]", "value": -0.46},
      {"measurement": "glycan array binding signal (z-score)", "setting": "[3]", "value": 8.34},
      {"measurement": "glycan array binding signal (z-score)", "setting": "[4]", "value": -0.001},
      {"measurement": "glycan array binding signal (z-score)", "setting": "[5]", "value": 0.304},
      {"measurement": "glycan array binding signal (z-score)", "setting": "[6]", "value": -0.083},
      {"measurement": "glycan array binding signal (z-score)", "setting": "[7]", "value": -0.571},
      {"measurement": "glycan array binding signal (z-score)", "setting": "[8]", "value": 0.359},
      {"measurement": "glycan array binding signal (z-score)", "setting": "[9]", "value": -0.372},
      {"measurement": "glycan array binding signal (z-score)", "setting": "[10]", "value": -0.115},
      {"measurement": "glycan array binding signal (z-score)", "setting": "[11]", "value": -0.468},
      {"measurement": "glycan array binding signal (z-score)", "setting": "[12]", "value": -0.496},
      {"measurement": "glycan array binding signal (z-score)", "setting": "[13]", "value": -0.285},
      {"measurement": "glycan array binding signal (z-score)", "setting": "[14]", "value": -0.136},
      {"measurement": "glycan array binding signal (z-score)", "setting": "[15]", "value": 0.521},
      {"measurement": "glycan array binding signal (z-score)", "setting": "[16]", "value": -0.18},
      {"measurement": "glycan array binding signal (z-score)", "setting": "[17]", "value": -0.312},
      {"measurement": "glycan array binding signal (z-score)", "setting": "[18]", "value": -0.438},
      {"measurement": "glycan array binding signal (z-score)", "setting": "[19]", "value": -0.499},
      {"measurement": "glycan array binding signal (z-score)", "setting": "[20]", "value": -0.581},
      {"measurement": "glycan array binding signal (z-score)", "setting": "[21]", "value": -0.434},
      {"measurement": "glycan array binding signal (z-score)", "setting": "[22]", "value": -0.622},
      {"measurement": "glycan array binding signal (z-score)", "setting": "[23]", "value": 0.178},
      {"measurement": "glycan array binding signal (z-score)", "setting": "[24]", "value": -0.594},
      {"measurement": "glycan array binding signal (z-score)", "setting": "[25]", "value": -0.48},
      {"measurement": "glycan array binding signal (z-score)", "setting": "[26]", "value": -0.404},
      {"measurement": "glycan array binding signal (z-score)", "setting": "[27]", "value": 0.426},
      {"measurement": "glycan array binding signal (z-score)", "setting": "[28]", "value": 0.187},
      {"measurement": "glycan array binding signal (z-score)", "setting": "[29]", "value": -0.17},
      {"measurement": "glycan array binding signal (z-score)", "setting": "[30]", "value": -0.266},
      {"measurement": "glycan array binding signal (z-score)", "setting": "Fuc(a1-3)GlcNAc", "value": -0.063},
      {"measurement": "glycan array binding signal (z-score)", "setting": "[31]", "value": -0.088},
      {"measurement": "glycan array binding signal (z-score)", "setting": "[32]", "value": -0.428},
      {"measurement": "glycan array binding signal (z-score)", "setting": "[33]", "value": 0.187},
      {"measurement": "glycan array binding signal (z-score)", "setting": "[34]", "value": -0.26},
      {"measurement": "glycan array binding signal (z-score)", "setting": "[35]", "value": -0.098},
      {"measurement": "glycan array binding signal (z-score)", "setting": "[36]", "value": -0.084}
    ]}
  ]
}
